Results on 153 variants are retold here after a collection of fitness landscapes (doi:10.1016/j.celrep.2020.107928).

The labels stand for the following.
B1: Caulobacter ParB omega fusion; a variant is named by its letters at X, in order, B8GW30 (parent)
chain: MESVVVGEPGMSEGRRGLGRGLSALLGEVDAAPAQAPGEQLGGSREAPIEILQRNPDQPRRTFREEDLEDLSNSIREKGVLQPILVRPSPDTAGEYQIVAGERAWRAAQRAGLKTVPIMVRELDDLAVLEIGIIENVQRADLNVLEEALSYKVLMEKFERTQENIAQTIGKSXSHVANXMRLLXLPDEVQSYLVSGELTAXHARAIAAAADPVALAKQIIEGGLSVRETEALARKAPNLSAGKSKGGRPPRVKDTDTQALESDLSSVLGLDVSIDHRGSTGTLTITYATLEQLDDLCNRLTRGI

Whole data set: some 81,000 sequences, median “one-hybrid fitness for binding NBS DNA” near -0.1, cut for the highest 2% near 0.36. The list shows a part of the results.

Variants of B1 are the subject of this assay. The assay is described as follows: one-hybrid fitness for binding NBS DNA (the Noc-binding site; scaled: cognate 1, non-cognate 0); higher = stronger binding. Conditions: with NBS DNA site. In outline: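 Caulobacter ParB libraries with four specificity codons randomised were screened by bacterial one-hybrid selection in the E. coli USO strain, using a HIS3 reporter whose site lies 19 bp from the promoter. Selection ran for 48 hours at 37°C on M9 lacking histidine, with 0.1 mM IPTG and 5 mM 3-AT. Plasmids were Illumina-sequenced before and after selection, three replicate libraries were pooled, and variants with under 10 reads were dropped. Fitness is the log change in each variant's read ratio to wild type, rescaled against the cognate and non-cognate sites.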
In the case of LLNY, the “one-hybrid fitness for binding NBS DNA” value is ≤ 0.2.
As to ATQI, the “one-hybrid fitness for binding NBS DNA” value was ≤ 0.2.
As to AETV, the “one-hybrid fitness for binding NBS DNA” value is ≤ 0.2.
SRIC: the “one-hybrid fitness for binding NBS DNA” value was ≤ 0.2.
In the case of PRMG, the “one-hybrid fitness for binding NBS DNA” value is ≤ 0.2.
Take ARTI: the “one-hybrid fitness for binding NBS DNA” value is ≤ 0.2.
ISNC: the “one-hybrid fitness for binding NBS DNA” value is ≤ 0.2.
With AIWD, the “one-hybrid fitness for binding NBS DNA” value is ≤ 0.2.
Turning to LYIS, the “one-hybrid fitness for binding NBS DNA” value is ≤ 0.2.
Under FDPI stands ≤ 0.2; under TFTR, ≤ 0.2.
Under GCVM stands ≤ 0.2; under PRPP, ≤ 0.2.
Turning to RCET, the “one-hybrid fitness for binding NBS DNA” value was ≤ 0.2.
Consider QYSF, for which the “one-hybrid fitness for binding NBS DNA” value was ≤ 0.2.
In the case of AATG, the “one-hybrid fitness for binding NBS DNA” value is ≤ 0.2.
The value for QFNW was ≤ 0.2.
Turning to WSKI, the “one-hybrid fitness for binding NBS DNA” value is ≤ 0.2.
For LWKR, the “one-hybrid fitness for binding NBS DNA” value turned out to be 0.238.
Turning to HTSA, the “one-hybrid fitness for binding NBS DNA” value is ≤ 0.2.
The value for QTMI was ≤ 0.2; that for LQKL was ≤ 0.2.
Take RKNR: the “one-hybrid fitness for binding NBS DNA” value was determined as 0.639.
For ISNF, the “one-hybrid fitness for binding NBS DNA” value was ≤ 0.2.
The value for ELLS was ≤ 0.2.
The value for QCLS was 0.382; that for INVY was ≤ 0.2.
For HPMI, the “one-hybrid fitness for binding NBS DNA” value is ≤ 0.2.
Under VPST stands ≤ 0.2; under PTVC, ≤ 0.2.
For the variant YTGC, the “one-hybrid fitness for binding NBS DNA” value is ≤ 0.2.
In the case of AKQG, the “one-hybrid fitness for binding NBS DNA” value was ≤ 0.2.
Take SSKV: the “one-hybrid fitness for binding NBS DNA” value is ≤ 0.2.
As to SWDT, the “one-hybrid fitness for binding NBS DNA” value is ≤ 0.2.
Consider LDWE, for which the “one-hybrid fitness for binding NBS DNA” value was ≤ 0.2.
HNNK: the “one-hybrid fitness for binding NBS DNA” value is ≤ 0.2.
As to DYNS, the “one-hybrid fitness for binding NBS DNA” value was ≤ 0.2.
For TAMC, the “one-hybrid fitness for binding NBS DNA” value is ≤ 0.2.
On to FREY, for which the “one-hybrid fitness for binding NBS DNA” value is ≤ 0.2.
Consider SVGR, for which the “one-hybrid fitness for binding NBS DNA” value was ≤ 0.2.
DLDL: the “one-hybrid fitness for binding NBS DNA” value is ≤ 0.2.
With SQQK, the “one-hybrid fitness for binding NBS DNA” value is ≤ 0.2.
Under LQVR stands ≤ 0.2; under ATNN, ≤ 0.2.
With GNTY, the “one-hybrid fitness for binding NBS DNA” value is ≤ 0.2.
Under NPEL stands ≤ 0.2; under GHRN, ≤ 0.2; under WNEG, ≤ 0.2.
The value for WRNE was ≤ 0.2; that for LCNK was ≤ 0.2.
Consider ATRH, for which the “one-hybrid fitness for binding NBS DNA” value was ≤ 0.2.
For the variant KMTV, the “one-hybrid fitness for binding NBS DNA” value was ≤ 0.2.
Turning to GSHW, the “one-hybrid fitness for binding NBS DNA” value is ≤ 0.2.
Regarding ENVS, the “one-hybrid fitness for binding NBS DNA” value is ≤ 0.2.
HISW: the “one-hybrid fitness for binding NBS DNA” value is ≤ 0.2.
HLND: the “one-hybrid fitness for binding NBS DNA” value was ≤ 0.2.
As to AECP, the “one-hybrid fitness for binding NBS DNA” value was ≤ 0.2.
On to RERY, for which the “one-hybrid fitness for binding NBS DNA” value was ≤ 0.2.
The value for YNSW was ≤ 0.2.
As to LLSN, the “one-hybrid fitness for binding NBS DNA” value is ≤ 0.2.
On to GKGG, for which the “one-hybrid fitness for binding NBS DNA” value was ≤ 0.2.
With LLLL, the “one-hybrid fitness for binding NBS DNA” value was ≤ 0.2.
PYAI: the “one-hybrid fitness for binding NBS DNA” value was ≤ 0.2.
The value for VWHG was ≤ 0.2.
Under MPSP stands ≤ 0.2; under RLNG, ≤ 0.2; under QCAP, ≤ 0.2.
Take KGQS: the “one-hybrid fitness for binding NBS DNA” value is ≤ 0.2.
Under DVGC stands ≤ 0.2.
With LHIS, the “one-hybrid fitness for binding NBS DNA” value is ≤ 0.2.
The value for AIVT was ≤ 0.2; that for PMCD was ≤ 0.2.
The value for HLME was ≤ 0.2; that for LKMD was ≤ 0.2; that for KDSC was ≤ 0.2.
Turning to RNDF, the “one-hybrid fitness for binding NBS DNA” value was ≤ 0.2.
In the case of ILRN, the “one-hybrid fitness for binding NBS DNA” value was ≤ 0.2.
Under AFHS stands ≤ 0.2; under PQTC, ≤ 0.2.
On to PMSL, for which the “one-hybrid fitness for binding NBS DNA” value is ≤ 0.2.
SRNH: the “one-hybrid fitness for binding NBS DNA” value was ≤ 0.2.
On to TGVC, for which the “one-hybrid fitness for binding NBS DNA” value was ≤ 0.2.
Consider SLIM, for which the “one-hybrid fitness for binding NBS DNA” value is ≤ 0.2.
KTWG: the “one-hybrid fitness for binding NBS DNA” value was ≤ 0.2.
Regarding ILQI, the “one-hybrid fitness for binding NBS DNA” value is ≤ 0.2.
Consider NGAT, for which the “one-hybrid fitness for binding NBS DNA” value was ≤ 0.2.
For the variant SHFF, the “one-hybrid fitness for binding NBS DNA” value was ≤ 0.2.
For the variant FQCS, the “one-hybrid fitness for binding NBS DNA” value was ≤ 0.2.
Under YPPS stands ≤ 0.2; under YNPF, ≤ 0.2.
Regarding QWFE, the “one-hybrid fitness for binding NBS DNA” value was ≤ 0.2.
For KSCA, the “one-hybrid fitness for binding NBS DNA” value was ≤ 0.2.
For the variant FDRN, the “one-hybrid fitness for binding NBS DNA” value is ≤ 0.2.
With QNAS, the “one-hybrid fitness for binding NBS DNA” value is ≤ 0.2.
In the case of TMCS, the “one-hybrid fitness for binding NBS DNA” value was ≤ 0.2.
As to CRAP, the “one-hybrid fitness for binding NBS DNA” value was ≤ 0.2.
As to FHAS, the “one-hybrid fitness for binding NBS DNA” value was ≤ 0.2.
As for LFTN, the “one-hybrid fitness for binding NBS DNA” value was ≤ 0.2.
Regarding RTSD, the “one-hybrid fitness for binding NBS DNA” value is ≤ 0.2.
In the case of HTWD, the “one-hybrid fitness for binding NBS DNA” value was ≤ 0.2.
For NTMW, the “one-hybrid fitness for binding NBS DNA” value is ≤ 0.2.
AKHT: the “one-hybrid fitness for binding NBS DNA” value was ≤ 0.2.
Regarding QVRE, the “one-hybrid fitness for binding NBS DNA” value is ≤ 0.2.
As for QHAF, the “one-hybrid fitness for binding NBS DNA” value is ≤ 0.2.
The value for PRRC was ≤ 0.2; that for MWHT was ≤ 0.2.
The value for LWKT was 0.333.
As for YHNR, the “one-hybrid fitness for binding NBS DNA” value was ≤ 0.2.
On to QTPE, for which the “one-hybrid fitness for binding NBS DNA” value was ≤ 0.2.
As for IITG, the “one-hybrid fitness for binding NBS DNA” value is ≤ 0.2.
For the variant VIHV, the “one-hybrid fitness for binding NBS DNA” value was ≤ 0.2.
In the case of EYNK, the “one-hybrid fitness for binding NBS DNA” value is ≤ 0.2.
Under RWKQ stands ≤ 0.2.
Under QVHS stands 0.296; under QSEC, ≤ 0.2; under QIHT, 0.425.
RHID: the “one-hybrid fitness for binding NBS DNA” value is ≤ 0.2.
With RDEP, the “one-hybrid fitness for binding NBS DNA” value is ≤ 0.2.
On to MVWR, for which the “one-hybrid fitness for binding NBS DNA” value was ≤ 0.2.
Under VWLW stands ≤ 0.2; under KLQE, ≤ 0.2.
The value for KSHS was ≤ 0.2; that for YIHC was ≤ 0.2; that for RLEY was ≤ 0.2.
Consider FALE, for which the “one-hybrid fitness for binding NBS DNA” value was ≤ 0.2.
Regarding CNRV, the “one-hybrid fitness for binding NBS DNA” value was ≤ 0.2.
For QPHM, the “one-hybrid fitness for binding NBS DNA” value was ≤ 0.2.
For QDAF, the “one-hybrid fitness for binding NBS DNA” value is ≤ 0.2.
For NGIR, the “one-hybrid fitness for binding NBS DNA” value is ≤ 0.2.
The value for RKGE was ≤ 0.2; that for QSYM was ≤ 0.2.
Take IASF: the “one-hybrid fitness for binding NBS DNA” value was ≤ 0.2.
The value for GLLV was ≤ 0.2; that for IRSG was ≤ 0.2; that for TNRP was ≤ 0.2.
For the variant HQGR, the “one-hybrid fitness for binding NBS DNA” value is ≤ 0.2.
Take GSTR: the “one-hybrid fitness for binding NBS DNA” value was ≤ 0.2.
MYIT: the “one-hybrid fitness for binding NBS DNA” value was ≤ 0.2.
On to WDYS, for which the “one-hybrid fitness for binding NBS DNA” value is ≤ 0.2.
Under GYDF stands ≤ 0.2; under GNCL, ≤ 0.2; under SHKT, ≤ 0.2.
Take PIPK: the “one-hybrid fitness for binding NBS DNA” value is ≤ 0.2.
Regarding QRDR, the “one-hybrid fitness for binding NBS DNA” value was 0.679.
For the variant SGKV, the “one-hybrid fitness for binding NBS DNA” value is ≤ 0.2.
Turning to SHSG, the “one-hybrid fitness for binding NBS DNA” value was ≤ 0.2.
Regarding PWPN, the “one-hybrid fitness for binding NBS DNA” value is ≤ 0.2.
Under YHNH stands ≤ 0.2; under TGVW, ≤ 0.2; under GSNY, ≤ 0.2.
On to VPQC, for which the “one-hybrid fitness for binding NBS DNA” value was ≤ 0.2.
In the case of HWFC, the “one-hybrid fitness for binding NBS DNA” value was ≤ 0.2.
For the variant HHDG, the “one-hybrid fitness for binding NBS DNA” value is ≤ 0.2.
